Measured values reported in the RNAGym collection of RNA variant scans (doi:10.7554/elife.90254).
Read counts are not given, so values of variants with three or more changes are uncertain.

B1: LINE1-mini (parent)
chain: GGCAGAGCUCAACACAGCGUGGCAAAGUGGCUGUGGCUAGACUGCC

Variants of: B1
Experiment: self-cleavage, relative activity (ratio to wild type); higher = more cleavage; in vitro, sequencing; the parent is a self-cleaving ribozyme

Row | Variant | self-cleavage
1 | G19C G29A G40U | 0.41
2 | G19C G29C G33C G35U | 0.03
3 | G19C G29U G33A | 0.03
4 | G19C G30A A39G C46A | 0.11
5 | G19C G30U C45U | 0.12
6 | G19C G33U C37A | 0.37
7 | G19C G35A C42G | 0.07
8 | G19C G35A U38C G40C | 0.02
9 | G19C G35U A41G | 0.02
10 | G19C G36C A39U | 0.02
11 | G19C G40A C42A | 0.29
12 | G19C G40U C45A | 0.03
13 | G19C U20A G22A G30A C31A U34C U38A A39U G44U | 0.03
14 | G19C U20A G29C C37G | 0.16
15 | G19C U20A G35U G36A | 0.04
16 | G19C U20A G40U | 0.08
17 | G19C U20C G40C G44U | 0.04
18 | G19C U20G A26U G44U | 0.4
19 | G19C U20G C23A A24U A26G | 0.34
20 | G19C U28C C42U | 1.49
21 | G19C U28G C31G | 0.17
22 | G19C U28G G33U | 0.28
23 | G19C U28G U32C | 0.27
24 | G19U A24G A26C | 0.72

Row | Variant | self-cleavage
25 | G19U A24G A41U | 0.03
26 | G19U A24G C31G | 0.1
27 | G19U A24G U38C | 0.55
28 | G19U A24U G33C | 0.01
29 | G19U A25G A41U C46A | 0.07
30 | G19U A25G C45A | 0.03
31 | G19U A25G C46A | 0.55
32 | G19U A25G U28G C42A | 0.05
33 | G19U A25U C31G U34A G40U A41C | 0
34 | G19U A25U G30U | 0.2
35 | G19U A26C C37U C42G | 0.02
36 | G19U A26G U34G G44U | 0.06
37 | G19U A26U U32C | 0.06
38 | G19U C23G C31G G33C C42G | 0.04
39 | G19U C23G G27C C37U | 0
40 | G19U C23U A41U | 2.43
41 | G19U C23U G44U | 0.16
42 | G19U C31G C46G | 0.02
43 | G19U C31U G44A | 0.03
44 | G19U C37U A39C | 0.01
45 | G19U C37U A41G C46U | 0.04
46 | G19U C37U G40U | 0.04
47 | G19U G21A A39U A41U | 0.73
48 | G19U G21A C37G A39C | 0.04

Row | Variant | self-cleavage
49 | G19U G21C A25U G33U | 1.48
50 | G19U G21C A39U | 0.17
51 | G19U G21C U32G U34C | 0.13
52 | G19U G21U G29U C31A G36C C37U | 0.01
53 | G19U G21U U28C | 0.24
54 | G19U G22A A25U G30A G36U | 0.15
55 | G19U G22C G30A | 2.61
56 | G19U G22U G30U U43A | 0.31
57 | G19U G22U U32A | 0.15
58 | G19U G27U U28A G35A | 0.09
59 | G19U G30U U43A | 0.22
60 | G19U G33A C42A | 0.07
61 | G19U G33C U38A | 0.02
62 | G19U G33U C37U C46G | 0.06
63 | G19U G33U G44U | 0.04
64 | G19U G35A U43A | 0.08
65 | G19U G35C C45G | 0.12
66 | G19U G36A C45G | 0.03
67 | G19U G36C C37G A39U | 0.02
68 | G19U G36U G40A | 0.06
69 | G19U G44C C46G | 0.07
70 | G19U U20C G33A | 0.03
71 | G19U U20C U32A G33A G35C | 0.01
72 | G19U U20G A25U | 0.6

Row | Variant | self-cleavage
73 | G19U U20G G21A G35U A39U G40C | 0.02
74 | G19U U32A G33A G44C C45A | 0.02
75 | G19U U32A U38G | 0
76 | G19U U32C A39U A41U | 0.1
77 | G19U U34A G35A C42G | 0.06
78 | G19U U34C C45A | 0
79 | G19U U34G A39G G44U | 0.03
80 | G19U U34G G36A G40A | 0.03
81 | G19U U34G G44C | 0.07
82 | G19U U43G C45A | 0.03
83 | U20A A24C G35A | 0.07
84 | U20A A24G A25C | 0.42
85 | U20A A24G G27U G29A | 1.41
86 | U20A A24G G33C | 0.05
87 | U20A A24U U28C | 0.5
88 | U20A A25C A39C | 0.01
89 | U20A A25G A39G A41U | 0.05
90 | U20A A25G U32G | 0.11
91 | U20A A26G U28G G44U | 0.01
92 | U20A A26G U38A A41C | 0.01
93 | U20A A26U G36U A39C | 0.05
94 | U20A A41C C45G | 0.03
95 | U20A C23A G27U U32A U38C C45G | 0.03
96 | U20A C23U U34G C46U | 0.44

Row | Variant | self-cleavage
97 | U20A C31U A39G | 0.02
98 | U20A C31U G33C A41C C45G | 0.06
99 | U20A C31U G35U U38G G44U | 0.03
100 | U20A C31U U38A | 0.01
101 | U20A C37A G44U | 0.04
102 | U20A C37G A39U | 0
103 | U20A C37G C46U | 0.02
104 | U20A G21A A26C U38G C45A | 0.01
105 | U20A G21A G33A U34G | 0.07
106 | U20A G21U A25G C45U | 0.21
107 | U20A G21U A26G | 0.75
108 | U20A G21U G27U G35U A41U C45G | 0.02
109 | U20A G22C U28A U32G U34G | 0.03
110 | U20A G22C U28G | 0.15
111 | U20A G22C U38A | 0.77
112 | U20A G27A G40U | 0.03
113 | U20A G27U G30A U34C U38C A41U C45U | 0.05
114 | U20A G29A G30A U43C C45U | 0.03
115 | U20A G29C U43C | 0.1
116 | U20A G29U C37A U43G G44A | 0
117 | U20A G29U G35U | 0.04
118 | U20A G35U A41C | 0.03
119 | U20A G36A C37A | 0.08
120 | U20A G36A C37U | 0.12

Row | Variant | self-cleavage
121 | U20A G36C A39U | 0.04
122 | U20A G36U G40A | 0.08
123 | U20A U28C A39G C42A | 0.04
124 | U20A U28G U32A U43G G44C | 0.01
125 | U20A U32G U38G | 0.03
126 | U20A U34A C42G | 0.05
127 | U20A U34A G35C | 0.01
128 | U20A U34C G36U | 0.04
129 | U20A U34G G35C U43C | 0.02
130 | U20C A24G U34C C37G | 0.04
131 | U20C A24U A25G | 1.26
132 | U20C A24U C37U | 0.04
133 | U20C A25G G30A | 0.16
134 | U20C A26C G30U | 0.1
135 | U20C A26U U34A C37A | 0.02
136 | U20C A41C U43C | 0.03
137 | U20C C23A G29A G30U C31U G36A A41G | 0.03
138 | U20C C23G G27C G30A C31A C37A G40A A41U C46G | 0.03
139 | U20C C23G U28C G35C G40A | 0.01
140 | U20C C23U A24G A26G G27A G33U | 0.06
141 | U20C C23U G40A | 0.06
142 | U20C C31G U32G A39G | 0.01
143 | U20C C31U C42A C45A | 0.04
144 | U20C G21C G29A C46A | 0.37

Row | Variant | self-cleavage
145 | U20C G21U A26U C45A | 2.43
146 | U20C G21U G40U | 0.09
147 | U20C G22A A25U | 0.54
148 | U20C G22A A25U U32G | 0.19
149 | U20C G22C C31G C42A | 0.02
150 | U20C G22U C45G | 0.1
151 | U20C G22U U28A | 0.33
152 | U20C G27C G36U C46G | 0.02
153 | U20C G29C A41U | 0.13
154 | U20C G29C G30U | 1.25
155 | U20C G29U G30A C31A | 0.46
156 | U20C G29U G36C | 0.01
157 | U20C G30A C31A A41G | 0.28
158 | U20C G30C C37A U38C | 0.02
159 | U20C G35C C37A | 0.15
160 | U20C G36U C37A | 0.02
161 | U20C G44U C46A | 0.08
162 | U20C U28A C31G C37A C42U | 0.06
163 | U20C U28C G30C G36U C37A | 0.01
164 | U20C U28C G35U G36A U43A | 0.16
165 | U20C U28G G29U U34C G35C G44C | 0.01
166 | U20C U32A G44U | 0
167 | U20C U34C G44U | 0.06
